Measurements from the antibiotic and cytotoxicity screens of Wong et al. (2023).
The other results are listed elsewhere or left out.

What was measured:
HSkMC = human skeletal muscle cells; experiment: cytotoxicity call (relative viability < 0.9); settings: 10 µM
HepG2 = experiment: cytotoxicity call (relative viability < 0.9); settings: 10 µM
S. aureus RN4220 = experiment: growth inhibition call (relative growth <= 0.2); settings: 50 µM

## Cc1ccc(NC(=O)n2c3ccccc3c3ccccc32)cc1
HSkMC
  cytotoxicity call: inactive
HepG2
  cytotoxicity call: active
S. aureus RN4220
  growth inhibition call: inactive

## NC(=O)C1CCN(C(=O)c2ccco2)CC1
HSkMC
  cytotoxicity call: inactive
HepG2
  cytotoxicity call: inactive
S. aureus RN4220
  growth inhibition call: inactive

## C[C@H](CO)N1C[C@H](C)[C@H](CN(C)S(=O)(=O)c2ccc(F)cc2)Oc2ccc(NC(=O)Nc3cccc4ccccc34)cc2C1=O
HSkMC
  cytotoxicity call: inactive
HepG2
  cytotoxicity call: inactive
S. aureus RN4220
  growth inhibition call: inactive

## C[C@H]1CN([C@@H](C)CO)C(=O)c2ccccc2-c2ccccc2CO[C@H]1CN(C)Cc1ccccc1C(F)(F)F
HSkMC
  cytotoxicity call: inactive
HepG2
  cytotoxicity call: inactive
S. aureus RN4220
  growth inhibition call: inactive

## C[C@H]1CN([C@@H](C)CO)C(=O)c2cc(NC(=O)CCCCCC(=O)Nc3ccccc3N)ccc2O[C@@H]1CN(C)S(=O)(=O)c1cn(C)cn1
HSkMC
  cytotoxicity call: inactive
HepG2
  cytotoxicity call: inactive
S. aureus RN4220
  growth inhibition call: inactive

## C[C@H]1CN([C@@H](C)CO)C(=O)c2cccc(NC(=O)C3CCCCC3)c2O[C@H]1CN(C)C(=O)Nc1ccc(C(F)(F)F)cc1
HSkMC
  cytotoxicity call: inactive
HepG2
  cytotoxicity call: inactive
S. aureus RN4220
  growth inhibition call: inactive

## Cc1ccc(-c2cnc3c(c2)C(=O)N([C@@H](C)CO)C[C@H](C)[C@@H](CN(C)C(=O)Cc2ccncc2)O3)cc1
HSkMC
  cytotoxicity call: inactive
HepG2
  cytotoxicity call: inactive
S. aureus RN4220
  growth inhibition call: inactive

## Cc1cc(C(=O)Nc2cccc3c2O[C@@H](CN(C)Cc2ccccc2)[C@@H](C)CN([C@@H](C)CO)C3=O)n(C)n1
HSkMC
  cytotoxicity call: inactive
HepG2
  cytotoxicity call: inactive
S. aureus RN4220
  growth inhibition call: inactive

## C[C@@H]1CCCCO[C@@H](CN(C)C(=O)CCC(F)(F)F)[C@H](C)CN([C@H](C)CO)C(=O)c2cc(NC(=O)C3CCCCC3)ccc2O1
HSkMC
  cytotoxicity call: inactive
HepG2
  cytotoxicity call: inactive
S. aureus RN4220
  growth inhibition call: inactive

## CO[C@H]1CN(C)C(=O)c2cc(NC(=O)C3CC3)ccc2OC[C@H](C)N(C(=O)C2CCOCC2)C[C@@H]1C
HSkMC
  cytotoxicity call: inactive
HepG2
  cytotoxicity call: inactive
S. aureus RN4220
  growth inhibition call: inactive

## C[C@H]1CN([C@@H](C)CO)C(=O)Cc2cc(NS(=O)(=O)c3ccccc3)ccc2O[C@H]1CN(C)S(C)(=O)=O
HSkMC
  cytotoxicity call: inactive
HepG2
  cytotoxicity call: inactive
S. aureus RN4220
  growth inhibition call: inactive

## C[C@@H]1CN([C@@H](C)CO)C(=O)Cc2cc(NC(=O)Nc3ccccc3)ccc2O[C@H]1CN(C)C(=O)Nc1cccc2ccccc12
HSkMC
  cytotoxicity call: inactive
HepG2
  cytotoxicity call: inactive
S. aureus RN4220
  growth inhibition call: inactive

## C[C@@H]1CN([C@H](C)CO)S(=O)(=O)c2ccc(C#Cc3ccccc3)cc2O[C@H]1CN(C)C(=O)Cc1ccccn1
HSkMC
  cytotoxicity call: inactive
HepG2
  cytotoxicity call: inactive
S. aureus RN4220
  growth inhibition call: inactive

## C[C@@H]1CN([C@H](C)CO)C(=O)c2cc(NS(=O)(=O)c3ccc(F)cc3)ccc2O[C@@H](C)CCCCO[C@@H]1CN(C)Cc1ccc(C(=O)O)cc1
HSkMC
  cytotoxicity call: inactive
HepG2
  cytotoxicity call: inactive
S. aureus RN4220
  growth inhibition call: inactive

## C[C@@H]1CN([C@@H](C)CO)C(=O)c2cc(NC(=O)c3ccccc3)ccc2O[C@@H](C)CCCCO[C@@H]1CN(C)C(=O)Nc1ccccc1
HSkMC
  cytotoxicity call: inactive
HepG2
  cytotoxicity call: inactive
S. aureus RN4220
  growth inhibition call: inactive

## CN(C)CC(=O)N1[C@@H]2Cn3c(ccc(-c4ccccc4)c3=O)[C@H]1[C@@H](C(=O)N1CCN(C)CC1)[C@@H]2CO
HSkMC
  cytotoxicity call: inactive
HepG2
  cytotoxicity call: inactive
S. aureus RN4220
  growth inhibition call: inactive

## O=C(C[C@@H]1CC[C@@H]2[C@H](COC[C@@H](O)CN2C(=O)Nc2ccc(Cl)cc2)O1)NC1Cc2ccccc2C1
HSkMC
  cytotoxicity call: inactive
HepG2
  cytotoxicity call: active
S. aureus RN4220
  growth inhibition call: inactive

## CCCC(=O)Nc1ccc2c(c1)C(=O)N(C)C[C@@H](OC)[C@H](C)CN(Cc1ccc(-c3ccccn3)cc1)[C@@H](C)CO2
HSkMC
  cytotoxicity call: inactive
HepG2
  cytotoxicity call: inactive
S. aureus RN4220
  growth inhibition call: inactive

## CC(C)NC(=O)Nc1ccc2c(c1)CC(=O)N([C@H](C)CO)C[C@@H](C)[C@H](CN(C)C(=O)NC1CCCCC1)O2
HSkMC
  cytotoxicity call: inactive
HepG2
  cytotoxicity call: inactive
S. aureus RN4220
  growth inhibition call: inactive

## CO[C@@H]1CN(C)C(=O)c2cc(NC(=O)C3CCC3)ccc2OC[C@@H](C)N(C(=O)Nc2ccc(C(F)(F)F)cc2)C[C@H]1C
HSkMC
  cytotoxicity call: inactive
HepG2
  cytotoxicity call: inactive
S. aureus RN4220
  growth inhibition call: inactive

## COc1ccc(S(=O)(=O)N(C)C[C@@H]2OCCCC[C@@H](C)Oc3ccc(NS(=O)(=O)c4cn(C)cn4)cc3C(=O)N([C@@H](C)CO)C[C@@H]2C)cc1
HSkMC
  cytotoxicity call: inactive
HepG2
  cytotoxicity call: inactive
S. aureus RN4220
  growth inhibition call: inactive

## COc1ccc(CN(C)C[C@H]2OCCCC[C@@H](C)Oc3ccc(NC(=O)c4ccccc4)cc3C(=O)N([C@H](C)CO)C[C@@H]2C)cc1
HSkMC
  cytotoxicity call: inactive
HepG2
  cytotoxicity call: inactive
S. aureus RN4220
  growth inhibition call: inactive

## C=CCOC(=O)[C@@H]1[C@H]2C(=O)O[C@H](c3ccccc3)[C@H](c3ccccc3)N2[C@H](c2ccc(OCCOC(=O)[C@@H]3C[C@@H]4C(=O)N[C@@H](CCCCNC(C)=O)C(=O)N4[C@@H]3c3ccc(O)cc3)cc2)[C@@]12C(=O)Nc1ccc(I)cc12
HSkMC
  cytotoxicity call: inactive
HepG2
  cytotoxicity call: inactive
S. aureus RN4220
  growth inhibition call: inactive

## COc1ccc(S(=O)(=O)Nc2ccc3c(c2)C(=O)N([C@H](C)CO)C[C@@H](C)[C@@H](CN(C)C(=O)CCC(F)(F)F)OCCCC[C@H](C)O3)cc1
HSkMC
  cytotoxicity call: inactive
HepG2
  cytotoxicity call: inactive
S. aureus RN4220
  growth inhibition call: inactive
